# Source: the RNAGym collection of RNA variant scans (doi:10.7554/elife.90254)
# Read counts are not given, so values of variants with three or more changes are uncertain.
# B1: LINE1-mini (parent)
# chain: GGCAGAGCUCAACACAGCGUGGCAAAGUGGCUGUGGCUAGACUGCC
# Variants of: B1
# Assay: self-cleavage, relative activity (ratio to wild type); higher = more cleavage; in vitro, sequencing; the parent is a self-cleaving ribozyme
row,Variant,self-cleavage
1,GGCAGAGCUCCACUCAGCGUGACAAAGUCGCUGUGGCUAGACUGCC,0.01
2,GGCAGAGCUCCACUCAGCGUGGCAAAGUGGCUGUUGCUAGACUGCC,0.01
3,GGCAGAGCUCCACUCAGCGUGGCAAAGUGGCAUUGGCUAGACUGCC,0.02
4,GGCAGAGCUCCACUCAGCGUGGCAAAGUGGCUGUGGCCCGACUGCC,0.04
5,GGCAGAGCUCCACACCUCGUGGCAAAGUGGCUCCGGCUACACUGCC,0.01
6,GGCAGAGCUCCACACCGCGUGGCAAAGUGGCUGUUGAUAGACUGCC,0.02
7,GGCAGAGCUCCACACGGCGUGGCAAAGUGGCUGUGGCUAGACUGUC,0
8,GGCAGAGCUCCACACGGCGUGACAAAGUGGCCGUGGCUAGACUGCC,0.01
9,GGCAGAGCUCCACACGGCGUGGCAAAGUAGCUGUGGCUAGACUGCC,0.01
10,GGCAGAGCUCCACACGGCGUGGCAAAGUGGCUGUGGCAAGACUGCC,0.01
11,GGCAGAGCUCCACACUGCGUGGCCAAGUGGCUGUGGCUAGACAGCC,0
12,GGCAGAGCUCCACACUGCGUGGCAAAGUGGCUGUCGCUAGACGGCC,0
13,GGCAGAGCUCCACACUGCGUGGCAAAGUGGCUGUGGCUAGACUUGC,0
14,GGCAGAGCUCCACACAGCGUGGCCAAGUGGCUGUGGCUAGACUUCA,0.04
15,GGCAGAGCUCCACACAGCGUGGCGAAGUGGCUGUGGCUCGACUGCC,0
16,GGCAGAGCUCCACACAGCGUGGCACAAUGGCUGUUGCUAGACUGCC,0.02
17,GGCAGAGCUCCACACAGCGUGGCAGAGUGGCAGUGGCUAGACUGCC,0.01
18,GGCAGAGCUCCACACAGCGUGGCAUAGUGGGUGUGGCUAGACUGCC,0
19,GGCAGAGCUCCACACAGCGUGGCAUAGUGGCUGUGACUAGACUGCC,0.01

row,Variant,self-cleavage
1,GGCAGAGCUCCACACAGCGUGGCAACGUGGCUGUGGCUAGACUGGC,0.02
2,GGCAGAGCUCCACACAGCGUGGCAACGUGGCUGUGGCUAGACUGCA,0.04
3,GGCAGAGCUCCACACAGCGUGGCAACCUUGCUGUGGCUAGACUGCC,0.08
4,GGCAGAGCUCCACACAGCGUGGCAACGUGGCUGUGGCUAAACUGCC,0
5,GGCAGAGCUCCACACAGCGUGGCAAGGUGUCUGUGUCUACACUUCC,0
6,GGCAGAGCUCCACACAGCGUGGCAAUGUGGCUGUGGCUAGUCUGCC,0.19
7,GGCAGAGCUCCACACAGCGUGGCAAUGUGGCUGUGGCUAGACUGUC,0.04
8,GGCAGAGCUCCACACAGCGUGGCAAUGUGUUUGUGGCUAGACUGCC,0.02
9,GGCAGAGCUCCACACAGCGUGGCAAAGUGGCUGUGGCUUGAUUGCC,0.03
10,GGCAGAGCUCCACACAGCGUGGCAAAGUGGCUGUGGCUAGGUUGCC,0.04
11,GGCAGAGCUCCACACAGCGUGGCAAAGUGGCUGUGGCUAGGCUCCC,0.02
12,GGCAGAGCUCCAAACAGCGUGGAUAAGUGGCUGUGGCUAGACUGUC,0.03
13,GGCAGAGCUCCAAACAGCGUGGCAAAGUGGCUGUGGUUAGACUGCC,0.05
14,GGCAGAGCUCCAAACAUCGUGGCUAAGUGGCUGUGGCUAGACUGCC,0.01
15,GGCAGAGCUCCAAACAGCGUGGCAAAGUCGGUGUGGCUAGACUGCC,0.02
16,GGCAGAGCUCCAAACAGCGUGGCAAAGCGGCUGUGGCUAGACUGCC,0
17,GGCAGAGCUCCAGACAGCGUGGCAAUGUGGCUGUGGCUAGACUGCC,0.02
18,GGCAGAGCUCCAGACAGCGUGGAAAAGUGGCUGUGGCUGGUCUGCC,0
19,GGCAGAGCUCCAGACAGCGUGGCAAAGUGGCUGUGGUUAGACUGCC,0.02

row,Variant,self-cleavage
1,GGCAGAGCUCCAGACAGCGUGUCAAAGUGGCUGAGGCUAGACUGCC,0
2,GGCAGAGCUCCAUGCAGCGUGGCAAAGUGGCCGUGGCUAGACUACC,0
3,GGCAGAGCUCCAUACCGCGUGGCAAAGUGGAUGGGGCUAGACUGCA,0
4,GGCAGAGCUCCAUAUAGCGUGGCAAAGUGGCUGUGGCUAGACUGCC,0.04
5,GGCAGAGCUCCAUACAGCGUGGCAAAGUGGAUGUGAUUAGACUGCC,0.03
6,GGCAGAGCUCCAUACAGCGUGGCAAAGUGGCUGUGGCUAGAUUGCC,0
7,GGCAGAGCUCCAUACAGCGUGGCAAAGUUGCUGUGGCUAGACUGCC,0.05
8,GGCAGAGCUCCAUACAGCGUGGCAAAGUGCCUGUGGCUAGACUGCC,0.02
9,GGCAGAGCUCCACAAAGCGUGGCGAUGUGGCUGUGGCUAGACUGCC,0.01
10,GGCAGAGCUCCACAAAGCGUGGCAAAGUGGCUGUGGCUAGUCUGCC,0.05
11,GGCAGAGCUCCACAAAGUGGGGCAAAGUCGCUGUGGCUAGACUGCC,0.01
12,GGCAGAGCUCCACAAAGCGUGGCAAACUGGCUGUGGCUAGACUUCC,0.02
13,GGCAGAGCUCCACAAAGCGUGGCAAAGUUGCUGUGGCUAGACUGCU,0.01
14,GGCAGAGCUCCACAGAGCGUGGCAAGGUGGCUGUGGCUAGACUGCC,0.01
15,GGCAGAGCUCCACAGAGUGAGGCAAAGUGGCUGUGGCUAGUCUGCC,0.01
16,GGCAGAGCUCCACAGAGCGUGGCAAAGUGGAUAUGGCUAGACUGCC,0
17,GGCAGAGCUCCACAGAGCGUGGCAAAGUGUCUGUGGCUAGCCUGCC,0.02
18,GGCAGAGCUCCACAGAGCGUGGCAAAGGGGCUGUGGCUAGACUGCC,0
